# Measurements published in the RNAGym collection of RNA variant scans (doi:10.1093/nar/gkz1192).
# Read counts are not given, so values of variants with three or more changes are uncertain.
# B1: CPEB3 Ribozyme (parent)
# chain: UAACAGGGGGCCACAGCAGAAGCGUUCACGUCGCAGCCCCUGUCAGAUUCUGGUGAAUCUGCGAAUUCUGCUGUAUAUCUC
# Variants of: B1
# Assay: self-cleavage, relative activity (ratio to wild type); higher = more cleavage; in vitro, sequencing
# Method in brief: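 For each CPEB3 ribozyme variant, relative activity is its cleaved/total read fraction divided by the unmutated ribozyme's. Barcoded error-prone PCR libraries were transcribed by T7 RNA polymerase (5 hours, 37°C) and held in DNase I for 15 min before an EDTA stop, with cleavage occurring throughout. Template-switching reverse transcription and Illumina sequencing were used to read the RNAs. A 5-read minimum applied, and results are the mean of three batches.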
row,Variant,self-cleavage
1,UAACAGGGGGCCACAGCAGAAGCGUUCACGGCGCAGCCCCUGUCAGAUUCUGGUGAAUCUGCGAAUUCCACUGUAUAUCUC,0.15
2,UAACAGGGGGCCACAGCAGAAGCGUUCACGCCGCAGCCCCUGGCAGAUUCUGGCGAAUCUGCGAACUCUGCUGUAUACCUC,0.28
3,UAACAGGGGGCCACAGCAGAAGCGUUCACGGCGCAGCCCCUGUCAGAUUCUCGUGAAUCUGCGAAUUCUGCCGUAUAACUC,0.9
4,UAACAGGGGGCCACAGCAGAAGCGUUCACGCCGCAGCCCCUGUCAGAUUCUGGUGAAUCUGCGAAUUCAGCUGUAUAACUC,0.22
5,UAACAGGGGGCCACAGCAGAAGCGUUCACGUAACAGACCCAGUCAGAUUCUGGUGAAUCUGCGAAUCCUGCCGUAUAUCUC,0.1
6,UAACAGGGGGCCACAGCAGAAGCGUUCACGGCGCAGCCCCUGUCCGAUUCUGGUGAAUCCGCGUAUCCUGCUGUUUAUCUC,0.07
7,UAACAGGGGGCCACAGCAGAAGCGUUCACGGCGCAGCCCCUGUGAGAUUCUGGUGAAUCUGCGAAUUCUGCUGUAAACCUC,0
8,UAACAGGGGGCCACAGCAGAAGCGUUCACGCCGCAGCCCCUGUCAGAUCCUGGUGAGUCUGCGAACUCUGCUGUAUAUCUC,0.34
9,UAACAGGGGGCCACAGCAGAAGCGUUCACGGCGCGACCCCUGUCAGAUUCUGGUGGAUCUGCGAAUUCUGCUGUAUAUCUC,0.31
10,UAACAGGGGGCCACAGCAGAAGCGUUCACGCCGCAGCCCCUGUCAGAUUCCGGUGAAGCUGCGAAUCCUGCUGUAUAUCUC,0.15
11,UAACAGGGGGCCACAGCAGAAGCGUUCACGUAGCAGCGCCUGUCAGGCUCUGGUGAAUCUGCGAAUUCUGCUGUAUAUCUC,0.11
12,UAACAGGGGGCCACAGCAGAAGCGUUCACGCCGCAGCCCCGGUCAGAUUCUGGUGAAUCUGCGUAUUCUGCUGUAUAUCUC,0.23
13,UAACAGGGGGCCACAGCAGAAGCGUUCACGCCGCAGCCCCUGCCAGAUUCUGGUGAAUCUGCUAACUCCGCUGUAUAUCUC,0.08
14,UAACAGGGGGCCACAGCAGAAGCGUUCACGCCGCAGCCCCUGUCAGAUUCUGGUGAAUCAGCGAAUCCUGAUGUAUAUCUC,0.23
15,UAACAGGGGGCCACAGCAGAAGCGUUCACGCCACAGCCCCUGUCAGACUCUGGUGGAUCUGCGAAUUCUGCUGUAUAUCUC,0.2
16,UAACAGGGGGCCACAGCAGAAGCGUUCACGCCGCAGCCCCUGUCAGAUUCUGGUGAAUCUGCGAAUUCUGCUGCAUAUCAC,1.14
17,UAACAGGGGGCCACAGCAGAAGCGUUCACGCCGCAGCCCCUGUCAGAUUCCGGUGAAUCUGCGAUUUCUGCUGUAUAUCUC,0.26
18,UAACAGGGGGCCACAGCAGAAGCGUUCACGCCGCAGCCCCUGACAGAUUCCGGUGAACCUGCGAAUUCUGCUGUAUAUCUC,0.31
19,UAACAGGGGGCCACAGCAGAAGCGUUCACGCCGCAGCCCCUGUCAGAUUCAGGCGAAUCUGCGAAUUCUGCUGCAUAUCUC,0.91
20,UAACAGGGGGCCACAGCAGAAGCGUUCACGCCGCAGCCCCGGUCAGAUCCAGGUGAAUGUGCGAAUUCUGCUGUAUAUCUC,0.16
21,UAACAGGGGGCCACAGCAGAAGCGUUCACGCCGCAGCCCCUGUCAGAUUCUGGGGAAUCUGCGUAUUCUGCUGUAUAUCUC,0.16
22,UAACAGGGGGCCACAGCAGAAGCGUUCACGCCGCAGCCCCUGUCAGAUGCUGGUGAGUCUGCGAAUUCUGCAGUAUAUCUC,0.25
23,UAACAGGGGGCCACAGCAGAAGCGUUCACGCCGCAGCCCCUGUCAGAUUCAGGUGAAUCUGCGAACUCUGCUGUAUAUCUC,0.23

row,Variant,self-cleavage
1,UAACAGGGGGCCACAGCAGAAGCGUUCACGCCGCAGCCCCUGUCAGAUUCAGGUGAAUCUGCGGAUUCUGCUGUAUAUCCC,0.39
2,UAACAGGGGGCCACAGCAGAAGCGUUCACGUAGCAGCCCCUGACAGAUUCUGGUGAAUCUGCGAAUUCUGCAGUAUAUCUC,0.26
3,UAACAGGGGGCCACAGCAGAAGCGUUCACGCCGCAGCCCCUGUCAGAUUCUGGUGAAUCUGCGAAUUCAGCUGUAUAUCUU,0.45
4,UAACAGGGGGCCACAGCAGAAGCGUUCACGCCGCAGCCCCAGUCAGAUUCUGGUGGAUCUGCGGAUUCGGCUGUAUAUCUC,0.17
5,UAACAGGGGGCCACAGCAGAAGCGUUCACGCCACAGCCCCUGUCAGAUUCUGGUGAAUCUGCGAAUUCUGCCGUAUAUCUC,0.15
6,UAACAGGGGGCCACAGCAGAAGCGUUCACGCCGCAGCCCCUGUCAGAUUCUGGAGAAUCUGCGAAUUCUGCUGUAUACCUC,0.92
7,UAACAGGGGGCCACAGCAGAAGCGUUCACGUAGCAGCCCCUGUCAGAUUCUGGUGAAUUUGCGAAUUCUGCUGCAUAUCUC,0.14
8,UAACAGGGGGCCACAGCAGAAGCGUUCACGCCGCAGCCCCUGCCAGAUUCUGGUGAACCUGCGAAUUCUGCUGUAUAUCUU,0.11
9,UAACAGGGGGCCACAGCAGAAGCGUUCACGCCGCAGCCCCUGUCAGAUCCUGGUGGUUCUGCGAAUUCUGCUGUAUGUCUC,0.19
10,UAACAGGGGGCCACAGCAGAAGCGUUCACGCCGCAGCCCCUGUCAGAUUCUGGUGAACCUGCGGAUUCUGCUGUAUAUCUC,0.12
11,UAACAGGGGGCCACAGCAGAAGCGUUCACGGCGCAGCCCCUGUCAGAUUCCGGUGGAUCCGCGAAUUCUGCUGUAUAUCUC,0.15
12,UAACAGGGGGCCACAGCAGAAGCGUUCACGCCGCAGCCCCAGUCAGAUCCUGGCGAAUCUGCGAAUCCUGCUGUAUAUCUC,0.06
13,UAACAGGGGGCCACAGCAGAAGCGUUCACGGCGCAGCCCCUGUCAGAUUCUGGUGAGUCUGCGAAUUCUGCUGUAUAUCCC,0.55
14,UAACAGGGGGCCACAGCAGAAGCGUUCACGGCGCGGCCCCUGCCAGAUUCAGGCGAAUCCGCGAAUUCUGCUGUAUAUCUC,0.28
15,UAACAGGGGGCCACAGCAGAAGCGUUCACGGCGCGGCCCCAGUCAGGUUCUGGUGAAUCUGCGAAUUCUGCCGUAUAUCUC,0.15
16,UAACAGGGGGCCACAGCAGAAGCGUUCACGCCGCAGCCCCUGUCAGAUCCUGGUGAACCUGCGAAUUCUGCUGUAUAUCUC,0.14
17,UAACAGGGGGCCACAGCAGAAGCGUUCACGCCGCAGCCCCUGCCAGAUUCUGGUGAAUCUGCGAACUCUGCUGUUUAUCUC,0.08
18,UAACAGGGGGCCACAGCAGAAGCGUUCACGCCGCAGCCCCUGUCAGACUCUGGUGAAUCUGCGAAUUCAGCUGUAUAUCUC,0.18
19,UAACAGGGGGCCACAGCAGAAGCGUUCACGCCGCAGCCCCUGCCAGAUUCUGGCGAAUCUGCGAAUUCUGCUGUAUAUCUC,0.23
20,UAACAGGGGGCCACAGCAGAAGCGUUCACGCCGCAGCCCCUGCCAGAUUCUGGUGAAUCUGCGAAUUCCGCUGUAGAUCUC,0.1
21,UAACAGGGGGCCACAGCAGAAGCGUUCACGCCGCAGCCCCUGUCAGAUUCCGGUGAAUCUGCGAAUUUUGCUGUAUAUCUC,0.6
22,UAACAGGGGGCCACAGCAGAAGCGUUCACGGCGCAGCCCCAGUCAGACUCUGGUGAUUCUGCGAAUCCAGCUGUAUAUCUC,0.12
23,UAACAGGGGGCCACAGCAGAAGCGUUCACGCCGCAGCCCCUGCCAGAUCCUGGUGAAUCUGCGAAUUCUGCUGUAUAUCCC,0.09

row,Variant,self-cleavage
1,UAACAGGGGGCCACAGCAGAAGCGUUCACGCCGCAGCCCCUGUCAGAUUCUGGUGAACCUGCGAAUUCUGCUGCUUAUCUC,0.76
2,UAACAGGGGGCCACAGCAGAAGCGUUCACGGCGUAGUCCCUGUCAGAUUCUGGUGAAUCUUCGAACUCUGCUGUAUAUCUC,0.06
3,UAACAGGGGGCCACAGCAGAAGCGUUCACGCCGCAGCCCCUGUCAGAUUCUGGUGAAUCCGCGAAUUCUGCUGUAUACCUC,0.34
4,UAACAGGGGGCCACAGCAGAAGCGUUCACGCCGCAGCCCCUGCCAAGUCCUGGUGAAUCUGCGAAUUCUGCUGUAUACCUC,0.11
5,UAACAGGGGGCCACAGCAGAAGCGUUCACGUAGCAGCCCCUGUCAGGUUCUGGUGAAUGCGCGAAUUCUGCUGUAUAUCUC,0.1
6,UAACAGGGGGCCACAGCAGAAGCGUUCACGCCGCAGCCCCUGUCAGAUCCUGGUGAAUCUGCGAAUUCUACCGUAUAUCUC,0.36
7,UAACAGGGGGCCACAGCAGAAGCGUUCACGCCGCAGCCCCCGUCAGAUUCUGGUGUAUCUGCGAAUUCUGCUGAAUAUCUC,1.04
8,UAACAGGGGGCCACAGCAGAAGCGUUCACGCCGCAGCCCCUGUCAGAUUCUGGUGAAUCUGCGAAUUCAGCCGUAUACCUC,0.23
9,UAACAGGGGGCCACAGCAGAAGCGUUCACGCCGCAGCCCCUGUCAGACUCUGGUGAAUCUGCGAAUUUUGCUGUAUAUCUC,0.65
10,UAACAGGGGGCCACAGCAGAAGCGUUCACGCCGCAGCCCCUGUCAGAUUCUGGUGAAUCUGCGAAUACUGCUGUAUAUUUC,0.39
11,UAACAGGGGGCCACAGCAGAAGCGUUCACGUAGCAGCCCCUGUCAGAUUCUGGUGAGUCUGCGUAUUCUGCUGUAUAUCUC,0.17
12,UAACAGGGGGCCACAGCAGAAGCGUUCACGCCGCAGCCCCUGUCAGAUUCUGGUGAAUCUGCGAAUACUGCAGUAUAUCCC,0.19
13,UAACAGGGGGCCACAGCAGAAGCGUUCACGCCGCAGCCCCAGUCAGAUUCUGGCGAAUCUGCGAAUUCUGCUGUAUACCUC,0.19
14,UAACAGGGGGCCACAGCAGAAGCGUUCACGGCGCAGCCCCUGUCAGAUUCAGGUGAAUCUGCGAAUUCAGCUGUUUAUCUC,0.12
15,UAACAGGGGGCCACAGCAGAAGCGUUCACGCCGCAGCCCCUGCGAGGUUCUGGUGAAUCUGCGAAUUCUGCUGUGUAUCUC,0
16,UAACAGGGGGCCACAGCAGAAGCGUUCACGCCGCAGCCCCUGUCAGACUCUGGUGGAUCUGCGAAUCCUGCUGUAUAUCUC,0.14
17,UAACAGGGGGCCACAGCAGAAGCGUUCACGGUGCAGCCCCUGUCAGAUUCUGGAGAAUCUGCGAAUUCUGCUGUAUAUCUC,0.27
18,UAACAGGGGGCCACAGCAGAAGCGUUCACGCCGCAGCCCCUGACAGAUUCUGGUGACUCCGCGGAUUCUGCUGUAUAUCUC,0.11
19,UAACAGGGGGCCACAGCAGAAGCGUUCACGCCGCAGCCCCUGUCAGAUUCUGUUGAAUCUGCGUAUUCUGCUGUAUAUCUC,0.28
20,UAACAGGGGGCCACAGCAGAAGCGUUCACGGCGCAGCCCCUGUCAGAUUCCGGCGAAUCUGCGAAUUCUGCUGUAUAUCUC,0.78
21,UAACAGGGGGCCACAGCAGAAGCGUUCACGGCGCAGCCCCUGUCAGAUUCUGGCGAAUCUGCGAACCCUGCUGUAUAUCUC,0.26
22,UAACAGGGGGCCACAGCAGAAGCGUUCACGCCGCAGCCCCUGUCAGAUUCUGGUGAAUCUGCGAAUUCUGCCGUAUAACUC,0.73
